# Measurements taken from ChEMBL document CHEMBL4888484, “Replenishing the malaria drug discovery pipeline: Screening and hit evaluation of the MMV Hit Generation Library 1 (HGL1) against asexual blood stage Plasmodium falciparum ,using a nano luciferase reporter read-out” (2022).
# Out of some 150,000 compounds screened, about 540 (0.36%) showed an effect of 50% or more. This is one part of the list.
# Test system: Plasmodium falciparum
# Experiment: Primary screen in NF54 nanoGlo assay, in single point, at 2uM, 72h; a lower Z score goes with more inhibition
# Type: functional, Erythrocyte
# Details: timepoint 72 hour
Structure (SMILES),% Inhibition,Z score
C#C[C@@H]1COCCN1C(=O)c1ccnc2nn[nH]c12,-12%,1.8
CC(Nc1ccc(C(=O)Nc2ccccc2)nn1)C1CCCO1 (stereo not drawn),-12%,2.17
Cc1onc(-c2cccc(F)c2)c1C(=O)N1CCCC1,-14%,2.52
CCn1nnc2cc(C(=O)N3CC=C(c4c[nH]c5ccccc45)CC3)ccc21,3%,-0.31
Cn1oc(C(=O)Nc2ccc(Cl)cc2Nc2ccccc2)cc1=O,-23%,2.35
Cc1noc([C@H]2CC(=O)N(c3ccc4c(c3)CCC4)C2)n1,0%,-0.06
O=C(N[C@H]1CCN2C(=O)c3cc(-c4ccccc4)ccc3NC(=O)[C@H]12)c1cnccn1,-10%,1.54
CCc1ccc(CN2CCc3c(C(=O)N[C@H]4CCN(C)C4=O)csc3C2)nc1,-5%,0.9
CNc1cc(Cl)ccc1OC[C@H]1CCOC1,-3%,0.37
Cc1n[nH]c(C)c1CCc1nc(-c2c(C)ncc3c2CCNC3)no1,-5%,0.66
Cn1cnnc1N1CCN(C(=O)Nc2c[nH]nc2-c2nccs2)CC1,6%,-0.61
O=S(=O)(c1ccsc1)N1CCC(OCC2CCCC2)CC1,12%,-1.6
CN(Cc1ccncc1)Cc1ccc2c(c1)CCO2,35%,-4.71
CCOC(=O)c1cc(-c2cccc(NC(=O)COc3cccc(Cl)c3)c2)n(-c2ccccc2F)n1,-8%,0.94
O=C(c1ccccc1Cl)N1CCN(S(=O)(=O)c2ccc3c(c2)CCCC3)CC1,-4%,0.31
COC(=O)c1c(-c2cccc(Cl)c2)noc1Nc1ccc(F)cc1,-3%,0.6
CS(=O)(=O)N1CCC[C@H](Cn2ccnc2C2CCCC2)C1,-14%,2.56
COC(C)CS(=O)(=O)NC1CCCCC1n1cccn1 (stereo not drawn),-10%,1.37
COc1ccc(-c2cnnc(N3C[C@@H](C)O[C@@H](C)C3)n2)cc1F,-17%,1.86
Cc1ncncc1C(=O)NC[C@H](O)c1ccc(O)cc1,-1%,0.2
CCNc1nc(C)c(C(=O)N[C@H]2CN(CCCO)C[C@@H]2C2CC2)s1,-4%,0.58

Structure (SMILES),% Inhibition,Z score
Cc1nc(-c2ccccc2)c(C(=O)N2CC[C@H](CO)[C@@H](O)C2)s1,-6%,0.63
COc1cccc2c1OC[C@@H](C(=O)Nc1cc(-c3ccc(=O)[nH]n3)ccc1C)C2,-9%,1.16
O=C(NCC1CCN(C(=O)c2cc3ccccc3o2)CC1)NC1CCCCCC1,-5%,0.75
CCc1cc(O)ccc1NC(=O)CN(C)C,0%,-0.06
Cc1nc(-c2nc(CCc3c(C)nc(O)nc3C)n(C(C)(C)C)n2)cs1,-5%,0.93
C[C@H]1CCN(c2cc(C(=O)Nc3nn(C)cc3C#N)ccn2)C1,-8%,0.91
CCCN(Cc1ccco1)C[C@H](O)COCc1ccccc1,-8%,1.09
CCCOc1ccc(Cl)cc1C(N)=O,-48%,5.58
CC(C)CN(CC(N)=O)CC(=O)Nc1sccc1C(N)=O,-4%,0.32
CC(C)NC(=O)C1=CCN(C(=O)c2ccccc2F)CC1,-2%,0.34
C[C@@H](CC1CN(C(=O)OC(C)(C)C)C1)NC(=O)C(C)(C)CO,-10%,1.56
Cc1ccc(NC(=O)[C@]2(C)CCCO2)c(CN(C)C)c1,-10%,1.31
Cn1nc2c(cc1=O)C[C@@H](C(=O)N1CCN(c3ccccc3F)CC1)CC2,-9%,1.14
CCC(NC(=O)NC1CC2OCCCC12)c1ccc(F)cc1F (stereo not drawn),18%,-2.28
CCOc1ccc(S(=O)(=O)N2C[C@H]3CN(C(C)=O)CC[C@@]3(CO)C2)cc1,-22%,2.58
Nc1ccc(N2CCN(c3ccc(C(F)(F)F)nn3)CC2)cn1,8%,-0.94
O=C(CC=Cc1ccc(F)cc1)N[C@H]1CC[C@@H](C(=O)O)C1,9%,-1.21
CC(C)c1noc(-c2cccnc2-n2cnc(C(=O)Nc3cccc(F)c3)c2)n1,-4%,0.48
CCOCCNC(=O)N[C@@H](C)c1csc(C2CC2)n1,-8%,0.9
Cc1noc(C)c1C(=O)NC1CCC(C)(C)CC1C (stereo not drawn),9%,-1.01
CCOC1CC(NC(=O)c2ccc(OC)cc2)C12CCCO2 (stereo not drawn),0%,0.08

Structure (SMILES),% Inhibition,Z score
CCOC(=O)[C@H](N)c1ccc(OC(C)C)cc1,-11%,1.23
COCCCn1c(C)cc(C(=O)N2C[C@H]3C(=O)N(CCOC)CCN3C(=O)[C@@H]2C)c1C,-18%,1.59
CCCc1nnc([C@H]2CCN(Cc3cccs3)C2)o1,1%,-0.17
O=C(Nc1cc(-n2ccnc2)ncn1)c1ccncc1,1%,-0.11
CCOC(=O)c1csc([C@@H]2CCCN2C(=O)c2ccc(C(=O)O)cc2)n1,-7%,0.77
COCc1nocc1C(=O)Nc1ccnn1[C@H]1CCCc2ccccc21,-11%,1.71
CN(C(=O)[C@H]1CCS(=O)(=O)C1)c1ccccc1,-11%,1.59
Cn1nccc1CNC(=O)N1CCN(c2cccs2)CC1,-8%,1.12
Cc1nn(C)c(C)c1S(=O)(=O)N1CCCCc2ccccc21,-18%,1.76
Cc1noc([C@H]2CCN(C(=O)NCc3ccc(F)cc3)C[C@H]2NC(=O)C2CCOCC2)n1,8%,-1.46
Cc1ccc(OCC(=O)N2CCOC3CCCCC32)cc1 (stereo not drawn),-7%,0.94
O=C1NC2(CCCCC2)C(=O)N1Cc1nc2ccccc2s1,-5%,0.52
COc1cc(NC(=O)Nc2ccccc2F)cc2sc(NS(=O)(=O)c3ccccc3)nc12,35%,-3.95
NC(=O)c1coc(CNC(=O)c2cccc(N3CCCC3)c2)n1,-7%,0.91
Cc1ncccc1NC(=O)N(Cc1ccccc1)[C@@H](CO)C(C)C,-6%,0.93
COc1ccc(O)c([C@H]2Nc3ccccc3-n3c(-c4ccc(C)cc4)c4c(=O)n(C)c(=O)n(C)c4c32)c1,25%,0.19
COc1ccc(-c2noc(-c3nc(Cc4ccccc4)no3)n2)cc1OC,-16%,1.45
CC(C)[C@H](CNC(=O)c1cc2c(cc1Br)NC(=O)CO2)c1cccnc1,0%,0.02
CCOCc1nnc(NCc2cnc3ccc(C)cn23)o1,-5%,0.79
Cc1ccccc1C(=O)NCC1=CCCN(Cc2cccc(C#N)c2)C1,-2%,0.53
CC[C@]1(C(=O)NCc2ccc(OC)cc2OC(F)F)CCNC1,-13%,1.28

Structure (SMILES),% Inhibition,Z score
Cc1[nH]cnc1CN1CCC(CCC(=O)Nc2ccc3c(c2)OCCO3)CC1,-6%,0.93
Cc1cnn(C)c1S(=O)(=O)Nc1cc(C(F)(F)F)c(Br)cn1,9%,-1.66
CC1(C)CC(=O)N(Cc2ccccc2)[C@@]1(C)O,-4%,0.73
Cc1cc(CNCCn2cccn2)on1,-7%,1.24
COc1cc(-c2n[nH]cc2CN2CCC([C@H](C)N3CCOCC3)CC2)cc(OC)c1OC,-14%,1.6
CN(CC#N)S(=O)(=O)c1cccc(F)c1F,-7%,0.85
CN1CC(=O)N(c2cccc(NC(=O)NC[C@H]3COCCO3)c2)C1=O,2%,-0.44
CC(C)Oc1ccc(CNC(=O)CC2CCN(C(=O)c3ccc4oc(C5CC5)nc4c3)CC2)cc1,5%,-0.59
Cc1ccc(CN(C(=O)c2cccs2)c2cccc(CC(=O)N(C)Cc3ccccc3)c2)cc1,5%,-0.48
COc1ccc2c(c1)C(N1CCCN(C(=O)c3cc(F)cc(F)c3)CC1)=Nc1ccccc1O2,6%,-0.79
CCn1c(=O)c(C(=O)NCc2ccc(F)cc2)nn(-c2cccc(C)c2)c1=O,-6%,1.17
CC1(C)CN(C(=O)c2cccc(N3CCCC3=O)c2)C[C@]1(C)O,-6%,1.16
c1cc(CN2CCC(N3CC4(CCCCC4)[C@H]3c3ccncc3)CC2)ccn1,1%,-0.19
CNC(=O)NC(=O)COc1ccc(Cl)cc1Cl,-2%,0.27
CCN1Cc2nc(OC)c(CNC(=O)CCc3c(C)nn(C)c3C)cc2C1=O,-6%,1.13
Cc1nn2c(c1-c1ccccc1)N=C(c1ccccc1O)C[C@H]2c1ccccc1,-3%,0.37
Cc1cc(C(F)(F)F)n(C[C@@H](C)CNC(=O)c2cn(C)c(=O)[nH]c2=O)n1,-1%,0.19
CC(C)c1cc(NC(=O)NCC[C@H]2CCC(=O)N2CCN(C)C)n(C)n1,1%,-0.25
CCC1(C)CC(c2csc(N)n2)CCO1 (stereo not drawn),0%,-0.04
CN(C)Cc1ccnc(NC(=O)c2cc(C3CC3)[nH]n2)c1,2%,-0.31
CCn1c(-c2cc(NC(=O)Cc3ccc(OC)cc3)[nH]n2)cc2ccc(OC)cc21,1%,-0.1
